Here are results for 1 molecule from patent publication US20150361149A1 (FLORIDA STATE UNIVERSITY RESEARCH FOUNDATION, published 2015).

The target of the assay is T1, extracellular domain of human FGF receptor-1c (FGFR-1c), ligand-binding immunoglobulin-like domains D2, D3 … (human, UniProt P11362 131-365).
T1 construct: range 131-365; Soluble analyte in all SPR studies; also called soluble FGFR-1c; not shown: N-terminal His tag for purification
T1 sequence (looked up): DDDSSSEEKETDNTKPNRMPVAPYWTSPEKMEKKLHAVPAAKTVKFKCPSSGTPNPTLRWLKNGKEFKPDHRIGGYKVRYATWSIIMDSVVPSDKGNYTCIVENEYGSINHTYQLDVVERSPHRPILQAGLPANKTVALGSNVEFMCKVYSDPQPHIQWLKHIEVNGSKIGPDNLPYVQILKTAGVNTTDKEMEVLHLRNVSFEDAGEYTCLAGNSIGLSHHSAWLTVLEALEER
Briefly: SPR (Biacore T-100, 25 C), FGF-1 amine-coupled to CM5 chip, soluble FGFR-1c as analyte 0-256 nM, bivalent analyte model. The source says: FGF-1 and mutant proteins were immobilized as the “ligand” on the SPR sensor chip, and the extracellular domain of human FGFR-1c was used as the soluble “analyte” in all studies. Recombinant FGFR-1c protein was expressed and purified from an insect cell-Baculovirus system as previously described (Lee, J. et al. (2009). Acta Crystallogr., Sect. F. 65, 1097-1104). The FGFR-1c recombinant protein contains the ligand-binding immunoglobulinlike domains D2, D3, and interconnecting linker (residues 131 to 365) and includes an N-terminal His tag for purification purposes. […] The association/dissociation phase was measured by flowing 0-256 nM FGFR-1c analyte over the FGF-1/mutant protein CM5 Sensor Chip at a flow rate of 75 μl/min for 280 s. […] The control flow cell response was subtracted from the ligand sample cell for each receptor injection; the 0 M concentration sensorgram values were subsequently subtracted from the analyte runs, and the resulting sensorgrams were analyzed with the Biacore T100 Evaluation v2.0 software package (GE Healthcare).

B1: human fibroblast growth factor-1 (FGF-1), 140 amino acid form (ligand)
chain: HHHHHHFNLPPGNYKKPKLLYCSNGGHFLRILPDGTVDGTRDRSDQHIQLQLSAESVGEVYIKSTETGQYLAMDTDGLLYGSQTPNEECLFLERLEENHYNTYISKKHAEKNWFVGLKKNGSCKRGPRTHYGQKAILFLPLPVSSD
notes: In SPR it was amine-coupled to the chip; also called acidic FGF
Regarding B1, the Kd was determined as 6.96 nM.
